{
  "source": "patent US8455186B2",
  "about": "“Method of detection of microorganisms with enhanced bacteriophage amplification” (priority 2007, dated 2013)",
  "test_system": "S. aureus strains",
  "test": "Stimulation of bacteriophage amplification by fatty acid compounds, all hosts tested",
  "details": "fatty acid compound added to growth medium",
  "excerpt": "For the purposes of this invention, the term “fatty acid” shall refer to all such compounds and related compounds.",
  "data": [
    {"smiles": "CCCCCCCCCCCC(=O)O", "note": "[lauric acid]", "values": [
      {"measurement": "effect on bacteriophage amplification", "value": "generally promotes bacteriophage amplification in nearly all hosts tested"}
    ]}
  ]
}
